The supplement of paper PMC12217912
The other results are listed elsewhere or left out. Sequences were assembled here from the parent chain. Values near 0.05 are background.

B1: TEV protease; numbered along this chain (parent)
chain: MGESLFKGPRDYNPISSSICHLTNESDGHTTSLYGIGFGPFIITNKHLFRRNNGTLVVQSLHGVFKVKDTTTLQQHLVDGRDMIIIRMPKDFPPFPQKLKFREPQREERICLVTTNFQTKSMSSMVSDTSCTFPSGDGIFWKHWIQTKDGQCGSPLVSTRDGFIVGIHSASNFTNTNNYFTSVPKNFMELLTNQEAQQWVSGWRLNADSVLWGGHKVFMVKPEEPFQPVKEATQL

Variants of: B1
Experiment: raw area under fraction-flipped curve 0-4 h after induction (AUC4h, not background-subtracted), DNA-recorder readout of cleavage of the substrate (dimensionless); higher = more cleavage of the substrate by the protease variant
Conditions: temperature: 34 °C; time window: 0-4 h after rhamnose induction
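Also: Bxb1 expression induced with 0.2% (w/v) L-rhamnose at OD600 near 0.5, cultures sampled hourly, flipped fraction per protease–substrate barcode pair counted by paired-end Illumina sequencing.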

Variant | area with substrate ENLYFQD | area with substrate ENLYFQF | area with substrate ENLYFQG | area with substrate ENLYFQI | area with substrate ENLYFQK | area with substrate ENLYFQL | area with substrate ENLYFQM | area with substrate ENLYFQP | area with substrate ENLYFQR | area with substrate ENLYFQS | area with substrate ENLYFQV | area with substrate ENLYFQW | area with substrate ENLYFQY | area with substrate ENLYFQC | area with substrate ENLYFQN | area with substrate ENLYFQT | area with substrate ENLYFQE | area with substrate ENLYFQQ | area with substrate ENLYFQH
R109L | 0.0764 | 0.0696 | 0.125 | 0.0853 | 0.0622 | 0.0337 | 0.111 | 0.0571 | 0.0634 | 0.1 | 0.0626 | 0.0719 | 0.0554 |  |  |  |  |  | 
F226G |  | 0.0499 |  | 0.0701 | 0.0656 | 0.0588 |  |  | 0.058 | 0.0966 | 0.0828 | 0.0752 | 0.12 | 0.124 | 0.086 | 0.0762 |  |  | 
F173H | 0.0659 | 0.0789 | 0.0934 | 0.0607 | 0.0638 | 0.0539 | 0.0711 | 0.0827 | 0.0653 | 0.0883 | 0.0674 | 0.0554 | 0.0645 | 0.107 | 0.0642 | 0.0613 | 0.0584 | 0.0623 | 
E231N | 0.0879 |  | 0.0892 |  | 0.0681 | 0.0545 | 0.103 | 0.0614 | 0.0621 | 0.105 | 0.0579 | 0.0773 | 0.0822 | 0.125 | 0.0935 | 0.0836 |  |  | 
E231V | 0.0688 |  | 0.0944 | 0.0549 |  | 0.0664 |  | 0.0919 | 0.0747 | 0.1 | 0.0554 | 0.0591 | 0.0837 | 0.101 |  | 0.0562 |  |  | 
W199F |  | 0.0682 |  | 0.0756 |  | 0.0616 |  | 0.0528 | 0.0602 | 0.081 | 0.0625 |  |  | 0.0921 | 0.0708 | 0.0588 |  | 0.0615 | 0.0618
I139V | 0.0645 | 0.0853 | 0.113 | 0.0633 | 0.0608 | 0.0666 | 0.0879 | 0.0542 | 0.0633 | 0.111 | 0.0527 | 0.0642 | 0.08 | 0.101 | 0.139 | 0.0494 |  |  | 
F140L |  |  |  | 0.0641 | 0.0549 |  | 0.0719 |  | 0.0631 | 0.0876 |  | 0.0557 | 0.0574 | 0.0897 | 0.0634 | 0.0582 |  | 0.064 | 
T174K | 0.0622 | 0.0761 |  |  | 0.0953 | 0.0671 | 0.0668 | 0.053 | 0.0627 | 0.0853 |  |  |  | 0.0912 | 0.0929 | 0.0651 |  | 0.0804 | 0.0558
Y179R |  |  | 0.118 | 0.0484 | 0.0642 | 0.079 | 0.0501 | 0.0548 | 0.0613 | 0.0592 |  | 0.0596 |  | 0.0564 | 0.0588 | 0.0631 |  |  | 
K185M |  | 0.088 |  | 0.0393 | 0.0699 | 0.0478 | 0.0884 |  |  | 0.11 |  |  |  | 0.118 | 0.0924 | 0.0718 |  |  | 0.0741
K185S | 0.0804 |  | 0.105 |  |  | 0.0655 | 0.0898 | 0.0577 | 0.0456 | 0.104 |  | 0.0775 | 0.0566 |  |  | 0.0684 |  |  | 0.0801
S169D | 0.0634 | 0.0502 | 0.0782 | 0.0653 | 0.0613 | 0.0623 | 0.0554 | 0.0702 | 0.0596 | 0.0589 |  | 0.0609 |  | 0.064 | 0.0664 | 0.0589 |  | 0.0602 | 0.0724
